The target of data set [1] is T1, full length Grk5 (Homo sapiens, UniProt P34947).
T1 construct: 2 µl 6/2 fold concentrated full length Grk5 (Millipore, #14-714) in reaction buffer is added to each well; purchased Millipore 14-714
The experiment in a line: GRK5 kinase activity assay (ADP Glo Kinase Assay). The format is biochemical. The note with it: Table 5. The method, then: Increasing concentrations of GRK5 are incubated together with 100 µM ATP in the absence and presence of 10 µM casein in a reaction buffer. Within this incubation non-phosphorylated casein is converted into phosphorylated casein and ATP is converted into ADP. Thereafter nonconverted ATP is digested into AMP by addition of the ADP-Glo™Reagent. Subsequently the ADP that is produced by GRK5 activity is phosphorylated back to ATP by addition of Promega Kinase Detection Reagent. These ATP levels serve as measure for the GRK5 activity and are quantified by a luciferase/luciferin reaction.
Km(ATP) was determined by measuring the GRK5 activity at increasing ATP concentrations.
The reaction buffer used was composed of: 20 mM MES pH 6.0, 1 mM DTT, 10 mM MgCl2, 0.01 % Tween20 and the reaction volume was 6µl.
Firstly 4 µl 6/4 fold concentrated substrate and 6/4 fold concentrated ATP in 1 fold concentrated reaction buffer are added to each well of the assay plate. Subsequently 67 nl 1000 fold concentrated test compound in 100 % DMSO are added to each well except to C- and C+ wells using pin tool. Then 67 nl 100 % DMSO are pipetted to C- (no kinase, no compound) and C+ (no compound) wells using pin-tool and 2 µl reaction buffer are added to C- wells. […] After incubation for 120 min. at room temperature 6 µl ADP-Glo™ Reagent (ADP Glo™ Kinase Assay Kit: Promega, V9101) are added to each well to stop the kinase reaction and deplete the unconsumed ATP. After a second incubation for 40 min. at room temperature 12 µl of Kinase Detection Reagent are added to convert ADP to ATP and start luciferase / luciferin reaction for detection of ATP. […] Finally, after incubation for 40 min at room temperature the luminescence intensity was measured.
The maximal compound assay concentration was set to 100 µM, representing the compound assay concentration used in the primary screen.
(In ADP-Glo the light output rises with the ADP produced.)

Data set [2] has as its system beta-TC6 cells. The experiment in a line: Insulin HTRF assay, relative activity Ar normalized to sunitinib. The format is cell-based. The note with it: Mus musculus, normalized to positive control sunitinib (5 µM = 100%), Table 10. The source says: For further screening of compounds derived from compounds described above for their ability to regulate insulin release an insulin HTRF® (Homogeneous Time-Resolved Fluorescence; Cisbio International, France) was used. This assay is based on two antibodies against insulin binding to different epitopes of insulin. One of these antibodies is coupled to Europium (Ab-Eu-Cryptate) and the other one to the fluorophore XL665 (Ab-XL665). Is insulin secreted into the supernatant of cell culture both antibodies can bind to insulin and come therefore into close proximity which allows upon excitation that energy transfer between (FRET) the long-life fluorescent donor Europium (cryptate) and the acceptors XL665. FRET increases proportionally with insulin concentration.
The automated assay protocol is as follows: • On day 1 15k beta-TC6 cells per well were seeded for 24 or 48 h in 50 µl complete medium. On day 2 or respective on day 3 the medium is removed and cells are washed with 60 µl 1xPBS and 20 µl induction buffer is added using BioTek washer. Subsequently, 10 µl Sunitininb (5 µM f.c.) or the test compound in induction buffer; 0.5% f.c. DMSO (CyBi-well) is transferred to the cells. The cells are then incubated at 37°C for 2, 3, 4h.
The HTRF assay is carried out using Greiner 384-well 784075 assay plates. First 10 µl supernatant is transferred from the cell plates in HTRF plates (CyBi-well). 10 µl of 0, 1, 2, and 4 ng/ml Insulin standard controls in assay medium is used as a control. To each well 10 µl of combined 1:25 Ab-XL665 (Acc) and 1:20 Ab-Eu-Cryptate (WellMate) are added and incubated for 120 min at RT in the dark. Finally HTRF is measured on ViewLux ultra high throughput microplate imager (PerkinElmer).
The evaluation software DataFactoty derives relative activities Ar according to the following equation: Ar = (V-R(0%control))/(R(100%control) -R(0%control)) × 100 [formula] […]
The activity of the compounds was classified according to their Ar (relative activity) into the following ranges: Ar ≥ 100% + + + +; 50% ≤ Ar < 100% + + +; 20% ≤ Ar < 50% + +; 10% < Ar < 20% + [formula] Table 10. Ar (relative activity) values of inventive compounds
In general terms: TR-FRET usually uses a lanthanide donor and a delayed reading to cut background.

Data set [3] has as its system beta-TC6 cell system. Briefly: Comparison of insulin release with commercially available inhibitors, mouse/rat insulin ELISA. The format is cell-based. Conditions: for activation at 5 µM: Mus musculus, Beta-TC6, 2 h, DMSO = 0, Table 9. As for the experimental part:
Based on literature references, several commercially available inhibitors were compared with compounds according to the invention. […] Cells were cultured for 24 h before treated with the inventive compounds and control inhibitors for 2 h at 37 °C and 5 % (v/v) CO2. Insulin in the supernatant was detected by mouse/rat insulin ELISA.

The test system of data set [4] is C2C12 cells. The experiment in a line: 2-NBDG glucose uptake by flow cytometry. Conditions: for fold induction at 5 µM: Mus musculus, C2C12, 1 h, read-out: Ratio of 2-NBDG uptake. On the technique in general: A flow cytometer gives signals particle by particle.
The test system of data set [5] is beta-TC6 cells. Briefly: Insulin release in high glucose medium, rat/mouse insulin ELISA. In kind it is cell-based. As for the experimental part:
Cells were cultured overnight, washed with PBS and then treated with 5 µM of test compounds as well as non-inhibitor controls for 2 h in a high glucose (4.5 g/L) DMEM at 37°C and 5 % (v/v) CO2. Release of insulin was detected using a rat/mouse insulin ELISA.
After incubation, the supernatant of the beta-TC6 insulinoma cells was diluted 1:20, whereas the supernatants of the RIN-T2B-5AH were diluted 1:10. The insulin release was measured with rat/mouse insulin ELISA (Merck Millipore Darmstadt, Cat. # EZRMI-13K) by following the manufacture's protocol. The enzyme activity of the horseradish peroxidase of the immobilized biotinylated antibodies was monitored spectrophotometrically by the increased absorbency at 490 nm, and corrected by the absorbency at 610 nm.
Afterwards, the supernatant was analyzed for insulin using the rat/mouse insulin ELISA (Merck Millipore Darmstadt, Cat. # EZRMI-13K) by following the manufacture's protocol..
Cells were treated for 2 h in a high glucose (4.5 g/L) DMEM media at 37°C and 5 % (v/v) CO2. Insulin release was analyzed using the rat/mouse insulin ELISA.

The test system of data set [6] is beta-TC6 cells. The experiment in a line: 2-NBDG glucose uptake by flow cytometry. Conditions: Mus musculus, Beta-TC6, 1 h, read-out: Ratio of 2-NBDG uptake.
Data set [7] has as its system beta-TC6. The experiment in a line: MTT cytotoxicity assay (cell viability and proliferation). In kind it is cell-based, mouse. Conditions: for proliferation, raw data intensity (RDI): beta-TC6, 10 µM, 72 h treatment, MTT. As for the experimental part: Using a MTT approach, we determined the effect on cell viability and proliferation of beta-TC6 and C2C12 cells to display potential cytotoxicity of the compounds according to the invention in vitro after a 72 h treatment.
For MTT (3-(4,5-dimethylthiazol-2-yl)-2,5-diphenyl tetrazolium bromide) transformation, 1/5 of total volume of a 5 mg/mL MTT stock solution was added to the cells as well as control wells and incubated at 37 °C, 5 % CO2 (v/v) for 1 h. Then 1/2 of total volume of MTT-stop solution was added and plates were incubated overnight in the dark at 25 °C. The optical density (OD) was measured using a multiwell spectrophotometer at a wavelength of 570 nm.

Data set [8] concerns beta-TC6 cells. Briefly: Insulin release in high glucose medium, rat/mouse insulin ELISA. In kind it is cell-based. This is another data set of the same source.
Setting [9] is: Beta-TC6, 2 h, 5 µM, 2 h, high glucose (4.5 g/L) DMEM, Example 4, Figure 2, read-out: increase of insulin release.
Setting [10] is: Beta-TC6, 2 h, read-out: Release of insulin.
[11] abbreviates: Beta-TC6, 5 µM, 2 h, high glucose (4.5 g/L), 0 µM = 1, Table 3, read-out: Release of insulin.
[12] abbreviates: Beta-TC6, 2 µM, 2 h, high glucose (4.5 g/L), 0 µM = 1, Table 3, read-out: Release of insulin.
The mark [13] stands for this setting: Beta-TC6, 10 µM, 2 h, high glucose (4.5 g/L), 0 µM = 1, Table 3, read-out: Release of insulin.

A word on the IC50: it is the concentration that gives 50% inhibition. As usually defined, the Emax is the maximal effect, on the per cent scale that the assay sets.

Where two headings read alike, the source gives them in different places. A value given as a limit tells only on which side of the number the result lay.

T1 sequence (P34947 whole entry): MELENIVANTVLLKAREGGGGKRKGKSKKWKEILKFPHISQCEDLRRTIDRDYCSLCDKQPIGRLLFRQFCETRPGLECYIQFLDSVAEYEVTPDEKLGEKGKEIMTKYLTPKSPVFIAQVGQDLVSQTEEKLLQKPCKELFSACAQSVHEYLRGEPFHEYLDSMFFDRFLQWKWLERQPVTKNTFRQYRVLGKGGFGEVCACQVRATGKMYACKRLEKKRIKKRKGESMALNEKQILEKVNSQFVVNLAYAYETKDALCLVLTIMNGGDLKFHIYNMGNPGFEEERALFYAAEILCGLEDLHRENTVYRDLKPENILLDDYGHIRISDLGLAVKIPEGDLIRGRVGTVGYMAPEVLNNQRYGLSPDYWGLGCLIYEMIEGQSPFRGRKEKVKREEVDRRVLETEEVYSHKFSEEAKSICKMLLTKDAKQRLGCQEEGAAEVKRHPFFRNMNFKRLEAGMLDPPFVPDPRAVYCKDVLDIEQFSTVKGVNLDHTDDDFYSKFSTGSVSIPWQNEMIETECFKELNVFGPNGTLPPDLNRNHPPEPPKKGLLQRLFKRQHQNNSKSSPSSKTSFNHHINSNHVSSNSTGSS

In data set [1], `CC(=O)c1cccc(-c2cnc3cnc(-c4cccs4)cn23)c1` [compound 412, 1-[3-[6-(2-thienyl)imidazo[1,2-a]pyrazin-3-yl]phenyl]ethanone] registered an IC50 of 5 to 20 µM. The Emax in data set [2] is 50 to 100%.
Turning to `COc1cc(-c2ccc3ncc(-c4cccc(C(=O)NCCN(C)C)c4)n3n2)ccc1O` [compound 4, N-(2-dimethylaminoethyl)-3-[6-(4-hydroxy-3-methoxy-phenyl)imidazo[1,2-b]pyridazin-3-yl]benzamide], the Emax in data set [2] was 10 to 20%. Besides, in data set [3], the activation at 5 µM was found to be 30.1%.
On to `FC(F)(F)Oc1ccc(-c2cccc(N3CCN(c4ccccn4)CC3)n2)cc1` [Cpd c3, reference compound], for which the results for the fold induction at 5 µM in data set [4] and in data set [6] were 0.914 and 1.26, respectively. The values for the activation at 5 µM in data set [5] (setting [9]) and in data set [3] were -11.7 ± 0.35% and -8.54%, respectively.
Take `CNc1cc(-c2ccc(N)cc2)ncn1` [Cpd c4, reference compound]: the fold induction at 5 µM in data set [4] stood at 0.876; in data set [6] it was 1.38. In addition, the activation at 5 µM in data set [5] (setting [9]) amounted to 3.69 ± 0.43%.
With `c1cnc2ccc(-c3ccc4nnc(-c5cscn5)n4c3)cc2c1` [compound 235, 4-[6-(6-quinolyl)-[1,2,4]triazolo[4,3-a]pyridin-3-yl]thiazole], in data set [1], the IC50 lay within 5 to 20 µM. In data set [2], this molecule returned an Emax of 50 to 100%.
For `CC(=O)Nc1cccc(-c2ccc3ncc(-c4cccc(NC(C)=O)c4)n3n2)c1` [compound 12, N-[3-[3-(3-acetamidophenyl)imidazo[1,2-b]pyridazin-6-yl]phenyl]acetamide], the results for the fold induction at 5 µM in data set [4], in data set [5] (setting [10]) and in data set [6] were 2.1, 1.34 and 2.17, respectively. The Emax in data set [2] lay within 20 to 50%. The activation at 5 µM is 30.5 ± 4.5% in data set [5] (Beta-TC6, 2 h, read-out: increase of insulin release) and 24.4% in data set [3]. Also, the toxic effect entry in data set [7] (beta-TC6, 72 h treatment, concentrations up to 10 µM) is “no toxic effect at all”. Besides, the fold induction at 2 µM in data set [8] (setting [10]) came out at 1.43. Moreover, the fold induction at 10 µM in data set [8] (setting [10]) amounted to 2.16.
Consider `COc1ccc(-c2ccc3ncc(-c4ccncc4)n3n2)cc1OC` [compound 11, 6-(3,4-dimethoxyphenyl)-3-(4-pyridyl)imidazo[1,2-b]pyridazine], for which the fold induction at 5 µM was 2.05 in data set [4], 1.91 in data set [5] (setting [11]) and 2.17 in data set [6]. Further, the Emax in data set [2] is 20 to 50%. For the same molecule, the activation at 5 µM in data set [5] (setting [9]) came out at 42.7 ± 10.4%; in data set [3] it was 53.9 ± 17%. In data set [3] (5µM, 2 h, DMSO = 0, Table 9), the “Insulin Release [%]” value is 53.86%. In addition, in data set [7], the “proliferation, raw data intensity (RDI)” value worked out at 1.17 ± 0.096 RDI. Further, the fold induction at 2 µM in data set [8] (setting [12]) came to 1.33. Besides, the fold induction at 10 µM in data set [8] (setting [13]) worked out at 2.31.
Regarding `CN(C)CCNC(=O)c1cccc(-c2cnc3ccc(-c4cccc(NS(C)(=O)=O)c4)nn23)c1` [compound 14, N-(2-dimethylaminoethyl)-3-[6-[3-(methanesulfonamido)phenyl]imidazo[1,2-b]pyridazin-3-yl]benzamide], the fold induction at 5 µM in data set [4] was 2.09; in data set [5] (setting [11]), 1.29; in data set [6] it was 1.83. The Emax in data set [2] is 20 to 50%. Moreover, in data set [7], the “proliferation, raw data intensity (RDI)” value is 1.35 ± 0.038 RDI. For the same molecule, the fold induction at 2 µM in data set [8] (setting [12]) stood at 0.97. Further, the fold induction at 10 µM in data set [8] (setting [13]) was 1.82.
As to `Cn1cc(-c2ccc3ncc(-c4cccs4)n3n2)cn1` [compound 3, 6-(1-methylpyrazol-4-yl)-3-(2-thienyl)imidazo[1,2-b]pyridazine], in data set [4] (C2C12, 1 h compound treatment, Figure 10), the “uptake of 2-NBDG compared with negative control background” value was “significantly increased uptake of 2-NBDG”. Also, in data set [2], the Emax was in the range of 20 to 50%. Besides, the activation at 5 µM in data set [3] amounted to 14.4%.
As to `Clc1cccc(-c2nnc3ccc(-c4ccoc4)cn23)c1` [compound 201, 3-(3-chlorophenyl)-6-(3-furyl)-[1,2,4]triazolo[4,3-a]pyridine], the IC50 in data set [1] was under 5 µM. Besides, the Emax in data set [2] lay in the range of 50 to 100%.
Regarding `COc1cc(-c2cnc3ccc(-c4cc(OC)c(OC)c(OC)c4)nn23)ccc1O` [compound 13, 2-methoxy-4-[6-(3,4,5-trimethoxyphenyl)imidazo[1,2-b]pyridazin-3-yl]phenol], the values for the fold induction at 5 µM in data set [4], in data set [5] (setting [11]) and in data set [6] were 2.4, 1.39 and 2.61, respectively. The Emax in data set [2] fell in the range of 20 to 50%. For the same molecule, in data set [3], the activation at 5 µM was determined as 91.6%. Further, the fold induction at 2 µM in data set [8] (setting [12]) is 1. In data set [8] (setting [13]), the fold induction at 10 µM worked out at 1.37.

These data come from patent EP2818471A1, “Nitrogen bicyclic compounds as inhibitors for Scyl1 and Grk5” (Max-Planck-Gesellschaft zur Förderung der Wissenschaften …, priority 2013, dated 2014).
